Laboratory results taken from PMC5392987.
Results are given in words; binding and its absence hold for the method and conditions named. In cells and extracts the contact can be indirect. Some binding calls cover weakened binding; strength is not graded here. For some assays here: Where a sequence is shown, tags or fusion partners need not be part of it.

Amino acid sequences for entries named in this document (tags omitted).
UniProt A1ZAW0: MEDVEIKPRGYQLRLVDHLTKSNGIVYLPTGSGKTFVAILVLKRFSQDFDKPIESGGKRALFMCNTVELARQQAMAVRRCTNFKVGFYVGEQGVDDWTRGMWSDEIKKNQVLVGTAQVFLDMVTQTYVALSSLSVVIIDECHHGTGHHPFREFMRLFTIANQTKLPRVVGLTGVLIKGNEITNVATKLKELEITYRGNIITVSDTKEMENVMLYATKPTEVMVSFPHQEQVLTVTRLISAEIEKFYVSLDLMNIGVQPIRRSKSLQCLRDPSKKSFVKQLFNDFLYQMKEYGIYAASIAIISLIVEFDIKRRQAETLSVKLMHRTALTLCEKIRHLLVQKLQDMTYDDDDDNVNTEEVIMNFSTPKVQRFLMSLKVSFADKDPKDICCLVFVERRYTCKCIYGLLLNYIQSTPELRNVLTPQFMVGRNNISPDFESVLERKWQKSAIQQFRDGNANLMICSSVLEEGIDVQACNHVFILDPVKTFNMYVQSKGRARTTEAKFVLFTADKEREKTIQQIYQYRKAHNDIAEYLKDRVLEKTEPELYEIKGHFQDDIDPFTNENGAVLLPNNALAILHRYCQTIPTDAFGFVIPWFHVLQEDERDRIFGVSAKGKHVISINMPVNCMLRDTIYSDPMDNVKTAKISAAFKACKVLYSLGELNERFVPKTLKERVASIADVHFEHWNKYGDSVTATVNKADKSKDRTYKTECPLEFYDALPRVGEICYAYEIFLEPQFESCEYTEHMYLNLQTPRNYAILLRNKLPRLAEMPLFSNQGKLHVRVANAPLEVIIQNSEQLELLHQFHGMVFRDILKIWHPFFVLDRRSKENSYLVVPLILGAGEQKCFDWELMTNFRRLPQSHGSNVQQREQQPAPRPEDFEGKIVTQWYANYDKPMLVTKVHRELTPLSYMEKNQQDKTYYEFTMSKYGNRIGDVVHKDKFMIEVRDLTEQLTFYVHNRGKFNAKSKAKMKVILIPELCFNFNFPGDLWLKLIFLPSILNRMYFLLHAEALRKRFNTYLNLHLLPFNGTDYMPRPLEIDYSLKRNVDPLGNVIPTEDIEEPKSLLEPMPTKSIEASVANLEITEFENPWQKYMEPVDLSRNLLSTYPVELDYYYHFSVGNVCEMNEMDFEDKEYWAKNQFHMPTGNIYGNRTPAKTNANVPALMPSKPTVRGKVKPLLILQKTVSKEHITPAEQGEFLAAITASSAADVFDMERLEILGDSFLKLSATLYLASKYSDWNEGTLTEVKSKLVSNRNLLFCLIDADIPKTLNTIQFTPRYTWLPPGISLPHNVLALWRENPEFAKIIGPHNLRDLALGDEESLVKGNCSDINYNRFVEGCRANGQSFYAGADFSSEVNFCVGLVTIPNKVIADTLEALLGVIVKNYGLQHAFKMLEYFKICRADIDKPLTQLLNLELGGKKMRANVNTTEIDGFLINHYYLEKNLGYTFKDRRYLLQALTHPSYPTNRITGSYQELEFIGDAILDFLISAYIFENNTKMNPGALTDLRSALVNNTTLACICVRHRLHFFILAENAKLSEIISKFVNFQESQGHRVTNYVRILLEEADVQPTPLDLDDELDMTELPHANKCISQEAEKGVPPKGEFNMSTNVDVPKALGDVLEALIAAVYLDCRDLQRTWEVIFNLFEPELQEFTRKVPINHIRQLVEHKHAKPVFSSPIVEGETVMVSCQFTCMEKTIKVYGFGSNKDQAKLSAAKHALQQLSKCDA

T1: Symplekin (endogenous) (Drosophila melanogaster (endogenous in Dmel-2 cells)) (UniProt Q8MSU4)
T1 sequence: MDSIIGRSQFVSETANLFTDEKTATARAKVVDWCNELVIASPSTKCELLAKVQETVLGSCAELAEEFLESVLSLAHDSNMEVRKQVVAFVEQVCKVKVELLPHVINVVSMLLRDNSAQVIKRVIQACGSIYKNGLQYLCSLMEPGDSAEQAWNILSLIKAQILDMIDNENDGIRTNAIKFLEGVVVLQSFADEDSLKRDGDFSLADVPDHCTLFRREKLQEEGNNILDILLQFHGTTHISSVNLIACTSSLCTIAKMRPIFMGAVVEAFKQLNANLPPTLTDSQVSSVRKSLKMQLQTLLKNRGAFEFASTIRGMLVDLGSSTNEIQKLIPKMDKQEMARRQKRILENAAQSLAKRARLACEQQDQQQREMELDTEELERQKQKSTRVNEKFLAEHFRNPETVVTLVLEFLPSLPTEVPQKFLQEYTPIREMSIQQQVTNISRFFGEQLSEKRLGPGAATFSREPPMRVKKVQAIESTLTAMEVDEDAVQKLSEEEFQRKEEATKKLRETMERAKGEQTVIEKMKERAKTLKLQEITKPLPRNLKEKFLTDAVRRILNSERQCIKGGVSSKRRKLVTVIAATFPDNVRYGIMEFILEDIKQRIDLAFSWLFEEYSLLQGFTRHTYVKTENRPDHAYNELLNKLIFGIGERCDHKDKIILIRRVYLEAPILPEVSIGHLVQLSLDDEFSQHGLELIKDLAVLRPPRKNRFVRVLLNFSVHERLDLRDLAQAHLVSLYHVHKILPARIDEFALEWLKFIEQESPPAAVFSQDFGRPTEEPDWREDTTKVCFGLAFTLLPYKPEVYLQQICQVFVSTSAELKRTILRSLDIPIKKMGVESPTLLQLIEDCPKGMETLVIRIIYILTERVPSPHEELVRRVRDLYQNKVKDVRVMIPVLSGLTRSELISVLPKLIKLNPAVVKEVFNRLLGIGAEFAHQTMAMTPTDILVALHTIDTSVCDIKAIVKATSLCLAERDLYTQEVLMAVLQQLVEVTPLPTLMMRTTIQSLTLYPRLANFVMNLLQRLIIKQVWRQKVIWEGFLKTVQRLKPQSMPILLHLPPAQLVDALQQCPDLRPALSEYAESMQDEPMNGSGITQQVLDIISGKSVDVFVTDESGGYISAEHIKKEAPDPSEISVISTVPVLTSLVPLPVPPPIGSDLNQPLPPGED

T2: HA-Symp (272-1165) (Drosophila melanogaster) (UniProt Q8MSU4)
T2 sequence: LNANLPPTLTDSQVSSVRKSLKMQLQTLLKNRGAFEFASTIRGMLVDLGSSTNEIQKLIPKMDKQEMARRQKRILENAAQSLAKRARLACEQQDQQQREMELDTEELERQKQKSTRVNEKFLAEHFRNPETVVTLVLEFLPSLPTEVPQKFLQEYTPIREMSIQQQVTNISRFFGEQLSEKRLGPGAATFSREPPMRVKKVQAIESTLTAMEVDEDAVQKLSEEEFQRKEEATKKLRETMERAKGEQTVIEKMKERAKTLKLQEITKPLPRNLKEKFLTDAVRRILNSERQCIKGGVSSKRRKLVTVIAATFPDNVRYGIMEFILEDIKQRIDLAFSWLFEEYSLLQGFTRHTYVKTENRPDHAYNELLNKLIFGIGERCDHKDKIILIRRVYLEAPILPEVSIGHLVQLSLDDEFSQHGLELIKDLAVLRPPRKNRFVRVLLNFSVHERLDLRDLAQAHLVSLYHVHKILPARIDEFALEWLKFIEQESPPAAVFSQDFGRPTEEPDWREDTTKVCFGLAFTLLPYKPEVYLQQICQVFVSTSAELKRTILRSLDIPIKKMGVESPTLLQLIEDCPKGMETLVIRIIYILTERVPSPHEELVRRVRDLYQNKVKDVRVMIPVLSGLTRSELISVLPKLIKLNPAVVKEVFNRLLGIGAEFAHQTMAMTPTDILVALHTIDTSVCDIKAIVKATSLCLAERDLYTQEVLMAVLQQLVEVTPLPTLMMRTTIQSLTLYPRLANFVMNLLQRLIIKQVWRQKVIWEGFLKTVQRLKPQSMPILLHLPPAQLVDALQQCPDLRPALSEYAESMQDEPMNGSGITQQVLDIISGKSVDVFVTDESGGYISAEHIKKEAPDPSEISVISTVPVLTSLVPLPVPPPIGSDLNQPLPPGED

B1: R2D2 (endogenous) (protein, UniProt Q9VLW8 1-311)
chain: MDNKSAVSALQEFCARTQINLPTYSFIPGEDGGYVCKVELLEIEALGNGRSKRDAKHLAASNILRKIQLLPGIHGLMKDSTVGDLDEELTNLNRDMVKELRDYCVRREMPLPCIEVVQQSGTPSAPEFVACCSVASIVRYGKSDKKKDARQRAAIEMLALISSNSDNLRPDQMQVASTSKLKVVDMEESMEELEALRRKKFTTYWELKEAGSVDHTGMRLCDRHNYFKNFYPTLKKEAIEAINSDEYESSKDKAMDVMSSLKITPKISEVESSSLVPLLSVELNCAFDVVLMAKETDIYDHIIDYFRTMLI
B2: HA-Symp (1-271) (domain or fragment, UniProt Q8MSU4 1-271)
chain: MDSIIGRSQFVSETANLFTDEKTATARAKVVDWCNELVIASPSTKCELLAKVQETVLGSCAELAEEFLESVLSLAHDSNMEVRKQVVAFVEQVCKVKVELLPHVINVVSMLLRDNSAQVIKRVIQACGSIYKNGLQYLCSLMEPGDSAEQAWNILSLIKAQILDMIDNENDGIRTNAIKFLEGVVVLQSFADEDSLKRDGDFSLADVPDHCTLFRREKLQEEGNNILDILLQFHGTTHISSVNLIACTSSLCTIAKMRPIFMGAVVEAFKQ
B3: CPSF73 (endogenous) (protein, UniProt Q9VE51 1-684)
chain: MTQATGDARMPDEESDLLQIKPLGAGQEVGRSCIMLEFKGKKIMLDCGIHPGLSGMDALPYVDLIEADEIDLLFISHFHLDHCGALPWFLMKTSFKGRCFMTHATKAIYRWMLSDYIKISNISTEQMLYTEADLEASMEKIETINFHEERDVMGVRFCAYIAGHVLGAAMFMIEIAGIKILYTGDFSRQEDRHLMAAEVPPMKPDVLITESTYGTHIHEKREDRENRFTSLVQKIVQQGGRCLIPVFALGRAQELLLILDEFWSQNPDLHEIPIYYASSLAKKCMAVYQTYINAMNDRIRRQIAVNNPFVFRHISNLKGIDHFEDIGPCVIMASPGMMQSGLSRELFESWCTDPKNGVIIAGYCVEGTLAKAVLSEPEEITTLSGQKLPLNMSVDYISFSAHTDYQQTSEFIRLLKPTHVVLVHGEQNEMSRLKLALQREYEADASTDIKFYNPRNTHAVDLYFRGEKTAKVMGSLAAKNSEVGSKLSGVLVKRDFKYHLLAPSDLGKYTDMSMSVVTQRQSIPWGSSLSTLELLLDRIGAGCVEVLEAERKLRVFGCIELTVEQKIIVMEWQATHVNDVYADAVLACIMQSELGGTNLKGATKQTKSEDSRFRECLIETLQDTFGDNCVPKMFEGDLLPVTVSGKRAEINLETLAISCAEDDVLRQMLNTTVQKLHQTLVSAL
B4: CPSF100 (endogenous) (protein, UniProt Q9V3D6 1-756)
chain: MTSIIKLHTISGAMDESPPCYILQIDDVRILLDCGWDEKFDANFIKELKRQVHTLDAVLLSHPDAYHLGALPYLVGKLGLNCPIYATIPVFKMGQMFMYDLYMSHFNMGDFDLFSLDDVDTAFEKITQLKYNQTVSLKDKGYGISITPLNAGHMIGGTIWKIVKVGEEDIVYATDFNHKKERHLSGCELDRLQRPSLLITDAYNAQYQQARRRARDEKLMTNILQTVRNNGNVLIAVDTAGRVLELAHMLDQLWKNKESGLMAYSLALLNNVSYNVIEFAKSQIEWMSDKLTKAFEGARNNPFQFKHIQLCHSLADVYKLPAGPKVVLASTPDLESGFTRDLFVQWASNANNSIILTTRTSPGTLAMELVENCAPGKQIELDVRRRVDLEGAELEEYLRTQGEKLNPLIVKPDVEEESSSESEDDIEMSVITGKHDIVVRPEGRHHSGFFKSNKRHHVMFPYHEEKVKCDEYGEIINLDDYRIADATGYEFVPMEEQNKENVKKEEPGIGAEQQANGGIVDNDVQLLEKPTKLISQRKTIEVNAQVQRIDFEGRSDGESMLKILSQLRPRRVIVIHGTAEGTQVVARHCEQNVGARVFTPQKGEIIDVTSEIHIYQVRLTEGLVSQLQFQKGKDAEVAWVDGRLGMRVKAIEAPMDVTVEQDASVQEGKTLTLETLADDEIPIHNSVLINELKLSDFKQTLMRNNINSEFSGGVLWCSNGTLALRRVDAGKVAMEGCLSEEYYKIRELLYEQYAIV
B5: Symplekin (endogenous) (protein, UniProt Q8MSU4 1-1165)
chain: T1 sequence

Tests used:
[1] = biological target: Dicer2 (endogenous) (Drosophila melanogaster (endogenous in Dmel-2 cells)) (UniProt A1ZAW0); assay: co-IP; endogenous Dcr2 or Symplekin immunoprecipitated from 175 ug refined nuclear extract of Dmel-2 cells, dialysed in Buffer D (20 mM HEPES/KOH pH 7.9, 20% glycerol, 100 mM KCl, 0.2 mM EDTA, 0.5 mM DTT); western blot
[2] = biological target: T1, Symplekin (endogenous) (Drosophila melanogaster (endogenous in Dmel-2 cells)); assay: as above
[3] = biological target: Dicer2 (endogenous) (Drosophila melanogaster (endogenous in Dmel-2 cells)) (UniProt A1ZAW0); assay: co-IP; endogenous Dcr2 or Symplekin immunoprecipitated from 175 ug refined cytoplasmic extract of Dmel-2 cells, dialysed in Buffer D (20 mM HEPES/KOH pH 7.9, 20% glycerol, 100 mM KCl, 0.2 mM EDTA, 0.5 mM DTT); western blot
[4] = biological target: Dicer2 (endogenous) (Drosophila melanogaster (endogenous in Dmel-2 cells)) (UniProt A1ZAW0); assay: co-IP; endogenous Dcr2 immunoprecipitated from 100 ug crude nuclear extract of Drosophila culture cells; western blot; beads and anti-Myc as negative controls
[5] = biological target: Dicer2 (endogenous) (Drosophila melanogaster (endogenous in Dmel-2 cells)) (UniProt A1ZAW0); assay: co-IP; endogenous Dcr2 immunoprecipitated from Dmel-2 cells stably expressing HA-tagged proteins; western blot for HA
[6] = biological target: T2, HA-Symp (272-1165) (Drosophila melanogaster); assay: co-IP; Dmel-2 cells expressing HA-Symp (272-1165), endogenous Symplekin RNAi-depleted; IP and western blot

binding [1]	binding [2]	binding [3]	binding [4]	binding [5]	binding [6]	Binder
binds	no binding	binds	binds	–	–	B1
–	–	–	–	binds	–	B2
–	binds	–	–	–	binds	B3
–	binds	–	–	–	binds	B4
binds	–	–	binds	–	–	B5
